Measurements published in publication PMC12040169 (PLOS Biology, 2025).
Some of the results follow.

tested on: T1, C. trachomatis L2/434/Bu expressing GFP (CTL2-GFP); set-up: species or system HeLa; C. trachomatis total inclusion area by high-content imaging, normalised to DMSO; conditions: total inclusion area; 28.5 h, 10 µM; inhibitor
T1 construct: L2/434/Bu GFP intracellular growth in HeLa cells
Summary of the method: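 High-content imaging followed the bulk GFP/resorufin measurement: fixed, Hoechst-stained cells were scored for GFP inclusions and host nuclei per well. Total inclusion area and count served as growth proxies, nuclei number as the viability proxy. MIC calculation matched the bulk assay.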

| SMILES | % of control remaining |
| --- | --- |
| Cc1c(C(=O)NCCOc2ccc(-c3ccccc3)cc2)sc2nc[nH]c(=O)c12 [CBK285805] | 101.316 |
| Cc1ccc(C(=O)Nc2c(C(=O)Nc3cccnc3)cnn2-c2ccccc2)cc1 [CBK263056] | 95.8503 |
| COc1cccc(CNc2nccnc2-c2ccccc2F)c1OC [CBK037993] | 76.7948 |
| O=C(Nc1ccc(O)cc1)c1ccc2c(c1)C(=O)N(c1cccc(N3C(=O)c4ccc(C(=O)Nc5ccc(O)cc5)cc4C3=O)n1)C2=O [CBK261334] | 103.716 |
| O=C(Cc1cn2ccsc2n1)Nc1ccc(N2CCCCC2)cc1 [CBK306185] | 71.3591 |
| O=S(=O)(NCC(O)Cn1c2ccc(Cl)cc2c2cc(Cl)ccc21)c1ccccc1 (centres unmarked) [CBK262542] | 95.0431 |
| Cc1cc(=O)c(O)c(CN2CCC(C(=O)O)CC2)o1 [CBK286843] | 82.3837 |
| CCOC(=O)CN1C(c2ccccc2O)Nc2ccc(Br)cc2C1c1ccccc1 (centres unmarked) [CBK263130] | 79.9526 |
| O=C(c1cccnc1)N1CCCC(c2cc3ccccc3cn2)C1 (centres unmarked) [CBK285154] | 100.292 |
| O=C(O)COc1ccc(NC(=O)Cc2ccc([N+](=O)[O-])cc2)cc1 [CBK268573] | 124.279 |
| Cc1cc(C)nc(SCCCn2c(=O)[nH]c3ccccc32)n1 [CBK264485] | 93.7137 |
| CCNc1cc(-c2ccco2)ncn1 [CBK090879] | 110.382 |
| NS(=O)(=O)c1cnccc1NCCc1ccccc1 [CBK058003] | 44.1239 |
| CC(C)Cn1c(SCC(=O)Nc2ccc(OC(F)F)cc2)nc(O)cc1=O [CBK296679] | 77.0198 |
| O=C(CC1S/C(=N/N=C/c2cn(Cc3ccccc3)c3ccccc23)NC1=O)Nc1ccccc1 (centres unmarked) [CBK264529] | 119.361 |
| CCN(CCC(C)Sc1ccccc1)c1cncc(Oc2ccc(S(C)(=O)=O)cc2)n1 (centres unmarked) [CBK137186T] | 86.7003 |
| CSCc1nnc(SCCC(=O)N2CCN(c3ccc(F)cc3)CC2)o1 [CBK240463] | 40.2351 |
| O=C(CSc1nc(-c2ccco2)cc(C(F)(F)F)n1)NCc1ccco1 [CBK266091] | 50.6364 |
| CCc1cc(CNC(=O)c2cc(C)nc3c(C)cccc23)on1 [CBK281554] | 87.6069 |
| O=C1CCCN1CC(=O)N1CCCC(c2cc3ccccc3cn2)C1 (centres unmarked) [CBK285091] | 73.7874 |
| Cc1ccc(-c2ncc3c(=O)[nH]c(=O)n(C)c3n2)cc1 [CBK288553] | 69.3311 |
| COc1ncc(-c2nccnc2NCc2cccc(OC)c2OC)c(OC)n1 [CBK037506] | 112.109 |
| Fc1ccc2nc(NCC3CCCO3)sc2c1 (centres unmarked) [CBK287647] | 83.6647 |
| COc1cccc2sc(NC(=O)c3ccc4occc4c3)nc12 [CBK149278] | 98.6195 |
| O=C(NC1(c2ccc(Cl)cc2)CC1)C1CCS(=O)(=O)C1 (centres unmarked) [CBK282765] | 109.332 |
| Cc1nn(C)cc1-c1cncn1C(CCN(C)C)c1ccccc1 (centres unmarked) [CBK281987] | 81.2444 |
| C[S+]([O-])CCNC(=O)c1cc(-c2ccc(F)cc2)no1 (centres unmarked) [CBK283251] | 110.243 |

| SMILES | % of control remaining |
| --- | --- |
| CCOC(=O)c1ccc(-c2ccc(OC)cc2)cc1 [CBK002658] | 71.3077 |
| CN(C)CCN(C)C(=O)Cc1csc(-c2ccccc2F)n1 [CBK282173] | 81.0721 |
| CN(C)S(=O)(=O)Nc1ccc(-c2nnn[nH]2)cc1 [CBK156312] | 114.362 |
| COc1cc(NC(=O)Cn2cnc3c2c(=O)n(C)c(=O)n3C)c(OC)cc1Cl [CBK133231] | 56.7207 |
| CCCC(CCC(=O)Nc1ccccc1Cl)C(=O)O (centres unmarked) [CBK286757] | 70.12 |
| COC(=O)[C@@H]1Cc2ncn(C(C)C)c2CN1S(=O)(=O)c1ccc(C#N)cc1 [CBK288986] | 87.0734 |
| Cc1cnn(CC(=O)NC(Cc2ccsc2)c2nccs2)c1 (centres unmarked) [CBK282825] | 98.4321 |
| Cc1cccc(-c2ncc(NC(=O)Cc3ccc(-c4ccccc4)cc3)nc2-c2ccc(N(C)C)cc2)c1 [CBK037567] | 99.3076 |
| O=C1OC(c2ccco2)=N/C1=C/Nc1ccc(C(=O)O)cc1 [CBK265195] | 96.4638 |
| CCNC(=O)N1CCCC(Cc2ccc(F)cc2F)(C(=O)OCC)C1 (centres unmarked) [CBK306734] | 63.1105 |
| COc1ccccc1N1CCN(CCc2n[nH]c(=S)n2-c2ccccc2)CC1 [CBK262212] | 85.88 |
| COc1cc(CN2CCCN(C)CC2)c([N+](=O)[O-])cc1OC [CBK261539] | 104.991 |
| C[C@@H](NC(=O)N(Cc1ccc([N+](=O)[O-])cc1)CC(C)(C)N)c1cccc2ccccc12 [CBK004921] | 57.2654 |
| CC(C)(C)OC(=O)n1cnc(CC#N)c1 [CBK000202] | 65.577 |
| CCN(Cc1ccc(C#N)cc1F)C(=O)NC(C)c1nncn1C (centres unmarked) [CBK305888] | 84.4665 |
| Cc1ccc(C(=O)NCC2COc3ccccc3O2)c(N2CCN(C(=O)c3ccco3)CC2)n1 (centres unmarked) [CBK076356] | 93.315 |
| O=S(=O)(N1CCCCCC1)N1CCN(S(=O)(=O)N2CCCCCC2)CC1 [CBK269210] | 110.674 |
| O=C(COc1ccc(Cl)cc1Br)NNC(=O)c1ccccc1O [CBK262943] | 115.822 |
| Cc1ccc(Cl)cc1C(=O)N[C@H]1C[C@@H](c2nnc(CO)n2C2CC2)C1 [CBK306746] | 66.6027 |
| Cn1ncc(Cl)c1C1CCCCCN1C(=O)c1ccco1 (centres unmarked) [CBK284915] | 78.5537 |
| COc1ccc(C(C)C)cc1-c1cncc(N[C@H](C)c2ccccc2)n1 [CBK065535] | 88.5027 |
| Cc1c(S(=O)(=O)Nc2ccc(-c3ccc(F)cc3)cc2)cnn1C [CBK281418] | 87.5675 |
| CC(=O)N1CCc2sccc2C1c1ccc(NC(=O)c2cccc(F)c2)cc1 (centres unmarked) [CBK286466] | 78.0156 |
| O=C(COC(=O)c1ccc2c(c1)C(=O)N(c1ccc(Oc3ccccc3)cc1)C2=O)c1ccc(Br)cc1 [CBK261607] | 87.7412 |
| CC(Sc1nc2ccccc2[nH]1)c1nc2ccccc2[nH]1 (centres unmarked) [CBK266502] | 95.7177 |
| CN(C(=O)c1ccccc1N)c1ccccc1 [CBK086716] | 101.18 |
| C=CCn1c(Cc2csc(NC(=O)c3cc(S(=O)(=O)NC)ccc3C)n2)n[nH]c1=S [CBK297903] | 95.1032 |

| SMILES | % of control remaining |
| --- | --- |
| Cc1ccc(C2=CCN(CC(=O)N3CCc4ccccc43)CC2)o1 [CBK283918] | 93.6565 |
| CCOC(=O)C1(Cc2ccc(F)cc2F)CCCN(C(=O)CC)C1 (centres unmarked) [CBK307012] | 61.3641 |
| CC(NC(=O)CCc1ccncc1)c1ccc2c(c1)CCCO2 (centres unmarked) [CBK281624] | 107.313 |
| O=C(CN1CCCCCC1)N1CCCC1c1n[nH]cc1-c1cccc(Cl)c1 (centres unmarked) [CBK283084] | 89.3664 |
| COc1cc(Cl)cc(CNCCO)c1OC(C)C [CBK269196C] | 73.5391 |
| CCc1nc(CN(C)C2CCN(CC(=O)NCc3ccco3)C2)no1 (centres unmarked) [CBK305328] | 90.2925 |
| Cc1ccccc1CN1CC[C@@H]2[C@H](C1)[C@@H](c1ccc(F)cc1)CN2C(=O)c1cccs1 [CBK285546] | 73.0912 |
| O=c1[nH]cnc2c1nc(S)n2C1OC(CO)C(O)C1O (centres unmarked) [CBK218834] | 101.315 |
| O=C(O)c1sccc1S(=O)(=O)NCc1ccc(Cn2cccn2)cc1 [CBK296707] | 77.1744 |
| O=c1cnn([C@H]2C[C@@H](O)[C@@H](CO)O2)c(=O)[nH]1 [CBK201162] | 124.633 |
| CC(=O)Nc1cccc(-c2cc(NCc3ccccc3)n3nccc3n2)c1 [CBK037153] | 103.261 |
| CCOC(=O)c1cn(CC)c2cc(N3CCSCC3)c(F)cc2c1=O [CBK307143] | 83.0452 |
| CCn1cc(CN(CCCn2ccnc2)Cc2cccc(F)c2)cn1 [CBK283124] | 72.9977 |
| C1CN2CCC1/C(=N\Nc1nnn[nH]1)C2 [CBK019005C] | 85.872 |
| Cc1ccc(C)c(NC(=O)c2cnc3sccn3c2=O)c1 [CBK287451] | 100.58 |
| Cc1cccc(C(=O)NC(CC(C)C)c2nnc3n2CCNCC3)c1O (centres unmarked) [CBK307191] | 91.6863 |
| CN(C)S(=O)(=O)c1ccc2[nH]cc(CCN)c2c1 [CBK268522C] | 142.575 |
| COc1ccc(CNC(=O)CCn2c(=O)oc3ccccc32)cc1 [CBK270138] | 91.7117 |
| CN(C)CC1CN(C(=O)Nc2ncc(Cc3ccccc3Cl)s2)CCO1 (centres unmarked) [CBK304107] | 70.731 |
| COc1ccccc1CC(=O)NC(CCSC)c1nnc2ccccn12 (centres unmarked) [CBK306492] | 75.2397 |
| COCc1cc(C[C@H]2CNCC[C@H]2CC(=O)N2CCc3ccccc3C2)no1 [CBK289144] | 90.2413 |
| CC(Nc1nc(N2CCN(CCO)CC2)nc2ccccc12)c1ccccc1 (centres unmarked) [CBK269427] | 83.4971 |
| O=C(Nc1ccccc1-c1nc2ccccc2[nH]1)c1ccncc1 [CBK270148] | 99.4749 |
| O=C(NC(c1ccccc1)c1ccco1)C1CCN(Cc2cccc(Cl)c2)CC1 (centres unmarked) [CBK148295] | 110.637 |
| CC(=O)c1cc(C(=O)Nc2ccc(Oc3ccc4c(c3)OCO4)cc2)cs1 [CBK286327] | 96.9057 |
| CC1(C(=O)NS(=O)(=O)c2cccc(-c3nnco3)c2)CC1 [CBK304683] | 63.2373 |
